{"source": "PubChem BioAssay AID504332", "about": "(National Center for Advancing Translational Sciences (NCATS), 2011)", "note": "Screen size: about 350,000 compounds; about 31,000 (8.9%) were called active. The shares of active, inactive and inconclusive entries below differ from those in the screen. Calls follow the shape of the dose curve; as a rule, active = well fitted inhibition curve with a large enough effect; inconclusive = small, poorly fitted or top-dose-only effect; inactive = no such curve, though single readings can be large or run the other way. Potencies beside an inconclusive call are fits to weak or partial responses and may not hold up. % is scaled to controls: 0 for no effect and ±100 for the full control effect; potency is read from the fitted curve at half-maximal effect; tags tell the direction and shape of the fitted curve.", "data": [{"biological_target": "Histone-lysine N-methyltransferase EHMT2 (Homo sapiens) (UniProt Q96KQ7)", "sequence (Q96KQ7 whole entry, looked up)": "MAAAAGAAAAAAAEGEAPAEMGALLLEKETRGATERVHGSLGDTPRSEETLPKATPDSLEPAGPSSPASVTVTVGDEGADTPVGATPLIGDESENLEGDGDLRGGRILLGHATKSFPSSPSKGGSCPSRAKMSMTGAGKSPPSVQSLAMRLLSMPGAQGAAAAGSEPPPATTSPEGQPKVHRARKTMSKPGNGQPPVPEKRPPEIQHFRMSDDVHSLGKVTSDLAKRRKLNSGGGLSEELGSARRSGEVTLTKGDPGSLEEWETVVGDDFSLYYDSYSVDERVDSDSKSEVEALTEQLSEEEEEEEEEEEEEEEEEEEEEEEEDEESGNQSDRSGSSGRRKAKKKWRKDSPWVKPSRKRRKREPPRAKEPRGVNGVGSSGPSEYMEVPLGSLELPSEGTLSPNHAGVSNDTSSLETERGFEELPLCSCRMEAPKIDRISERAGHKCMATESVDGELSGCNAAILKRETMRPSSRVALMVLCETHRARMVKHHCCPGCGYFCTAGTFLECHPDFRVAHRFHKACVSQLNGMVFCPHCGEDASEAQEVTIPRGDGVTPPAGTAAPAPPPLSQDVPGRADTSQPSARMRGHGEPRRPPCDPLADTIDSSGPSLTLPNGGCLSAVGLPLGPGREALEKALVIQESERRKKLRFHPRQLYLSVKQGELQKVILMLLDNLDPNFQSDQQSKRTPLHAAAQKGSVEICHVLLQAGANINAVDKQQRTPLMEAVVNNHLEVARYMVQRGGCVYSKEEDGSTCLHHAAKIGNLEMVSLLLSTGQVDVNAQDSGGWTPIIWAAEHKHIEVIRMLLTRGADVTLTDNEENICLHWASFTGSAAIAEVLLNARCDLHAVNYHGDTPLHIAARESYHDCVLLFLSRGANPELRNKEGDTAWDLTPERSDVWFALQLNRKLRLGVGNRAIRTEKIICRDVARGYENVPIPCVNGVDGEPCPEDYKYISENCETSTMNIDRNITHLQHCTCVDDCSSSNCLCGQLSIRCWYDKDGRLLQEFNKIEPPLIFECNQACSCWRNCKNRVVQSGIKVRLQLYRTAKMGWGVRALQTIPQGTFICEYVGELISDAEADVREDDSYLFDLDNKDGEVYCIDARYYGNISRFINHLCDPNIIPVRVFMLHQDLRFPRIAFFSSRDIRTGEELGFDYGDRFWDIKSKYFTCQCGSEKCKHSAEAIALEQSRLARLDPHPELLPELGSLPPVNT", "test": "qHTS Assay for Inhibitors of Histone Lysine Methyltransferase G9a; also: nearly all actives have a fitted effect of over 75% in size", "settings": "G9a H3K9 monomethylation, AlphaScreen, 2 h; activity, negative = inhibition: at 59 µM (top of the series) unless noted", "method_in_brief": "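Quantitative HTS format: methyltransferase activity on a biotin-tagged H3K9 peptide is measured by AlphaScreen, using a rabbit anti-monomethyl-H3K9 antibody with streptavidin donor and anti-IgG acceptor beads. Final levels are 20 nM enzyme, 500 nM peptide, 20 uM SAM; 2 h RT.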", "values": [{"smiles": "Cc1cc(OC(C)C(=O)NCc2ccncc2)c2c3c(c(=O)oc2c1)CCC3", "note": "(stereo unspecified)", "activity, negative = inhibition": "inactive: 41.1% [at 102 µM]"}, {"smiles": "C=C(C)[C@]12C[C@@H](C)[C@@]34O[C@](Cc5ccccc5)(O[C@@H]1[C@@H]3C=C(COC(=O)Cc1ccc(O)c(OC)c1)C[C@]1(O)C(=O)C(C)=C[C@@H]41)O2", "Potency": "inconclusive: 14.1 µM [inhibitor, partial curve]"}, {"smiles": "NS(=O)(=O)c1ccc(-c2ccc(C=C3C(=O)NC(=O)NC3=O)o2)cc1", "Potency": "active: 10 µM"}, {"smiles": "CCc1ccc(NC(=O)c2cccn(Cc3cccc([N+](=O)[O-])c3)c2=O)cc1", "Potency": "inconclusive: 7.08 µM [inhibitor, partial curve, poor fit]"}, {"smiles": "CCOC(=O)C1=CC(=C2C(=O)N(CC)C(=S)N(CC)C2=O)c2ccccc2O1", "Potency": "active: 25.1 µM"}, {"smiles": "CCOP(=O)(OCC)C(Nc1cccc(C(F)(F)F)c1)c1ccc(C)cc1", "note": "(stereo unspecified)", "Potency": "inconclusive: 79.4 µM [inhibitor, single point]"}, {"smiles": "Cc1cc(OCc2nn[nH]n2)c2c3c(c(=O)oc2c1)CCCC3", "Potency": "inconclusive: 89.1 µM [inhibitor, single point]"}, {"smiles": "Cc1ccc(OCCOc2cccc(C=C3C(=O)NC(=O)NC3=O)c2)cc1", "Potency": "inconclusive: 39.8 µM [inhibitor, partial curve, poor fit]"}, {"smiles": "Cn1cc2c([N+](=O)[O-])cc([N+](=O)[O-])cc2n1", "Potency": "active: 79.4 µM"}, {"smiles": "O=c1c(O)c(-c2ccc(O)c(O)c2)oc2c(O)c(O)cc(O)c12", "activity, negative = inhibition": "inconclusive: -88% [inhibitor] [at 2.33 µM]"}, {"smiles": "O=C1NC(=O)N(Cc2ccco2)C(=O)/C1=C/c1cccn1CCOc1ccccc1Cl", "Potency": "inconclusive: 15.8 µM [inhibitor, partial curve, poor fit]"}, {"smiles": "O=c1[nH]c(O)c(/C=C2/C=CC(c3cc(Cl)ccc3Cl)=N2)c(=O)[nH]1", "Potency": "active: 50.1 µM"}, {"smiles": "COc1ccc(C)cc1NC(=O)N(Cc1ccc2c(c1)OCO2)C1CCN(Cc2ccccc2)CC1", "Potency": "inconclusive: 11.2 µM [inhibitor, partial curve]"}, {"smiles": "Cc1ccc(C)c(NC(=S)NC2CC3CCC(C2)N3Cc2ccco2)c1", "note": "(stereo unspecified)", "Potency": "inconclusive: 2.51 µM [inhibitor, partial curve, poor fit]"}, {"smiles": "Cc1nc2c(c(=O)[nH]1)C(c1ccc([N+](=O)[O-])cc1)c1c(c3ccccc3oc1=O)O2", "note": "(stereo unspecified)", "Potency": "inconclusive: 25.1 µM [inhibitor, partial curve, poor fit]"}, {"smiles": "O=c1cccc2n1CC1CC2CN(CC(O)CN2CC3CC(C2)c2cccc(=O)n2C3)C1", "note": "(stereo unspecified)", "Potency": "inconclusive: 2.24 µM [inhibitor, full curve]"}]}]}
